From paper PMC9911399, “Two distinct binding modes provide the RNA-binding protein RbFox with extraordinary sequence specificity”
Changes are numbered by the printed parent chain; changes in the protein carry UniProt numbers. The list shows a part of the results.

B1: UUAGAGA (DNA:RNA)
RNA: GGGAGACCGGAAUUCAGAUUGUCCUUAGAGAUUAAAUCCCGUCGUAGCCACCA
DNA 1: CAATCTGAATTCCGGTCTCCC
DNA 2: TGGTGGCTACGACGGGATT
B2: CCCGGUA (DNA:RNA)
RNA: B1 RNA with U25C, U26C, A27C, A29G, G30U
DNA 1: CAATCTGAATTCCGGTCTCCC
DNA 2: TGGTGGCTACGACGGGATT
B3: GGGUGAU (DNA:RNA)
RNA: GGGAGACCGGAAUUCAGAUUGUCCGGGUGAUUUAAAUCCCGUCGUAGCCACCA
DNA 1: CAATCTGAATTCCGGTCTCCC
DNA 2: TGGTGGCTACGACGGGATT
B4: UUGCGCG (DNA:RNA)
RNA: B3 RNA with G25U, G26U, U28C, A30C, U31G
DNA 1: CAATCTGAATTCCGGTCTCCC
DNA 2: TGGTGGCTACGACGGGATT
B5: UACCCGC (DNA:RNA)
RNA: B1 RNA with U26A, A27C, G28C, A29C, A31C
DNA 1: CAATCTGAATTCCGGTCTCCC
DNA 2: TGGTGGCTACGACGGGATT
B6: UUGCGCA (DNA:RNA)
RNA: B1 RNA with A27G, G28C, A29G, G30C
DNA 1: CAATCTGAATTCCGGTCTCCC
DNA 2: TGGTGGCTACGACGGGATT
B7: GGAAAUG (DNA:RNA)
RNA: B3 RNA with G27A, U28A, G29A, A30U, U31G
DNA 1: CAATCTGAATTCCGGTCTCCC
DNA 2: TGGTGGCTACGACGGGATT
B8: ACGCUUA (DNA:RNA)
RNA: B3 RNA with G25A, G26C, U28C, G29U, A30U, U31A
DNA 1: CAATCTGAATTCCGGTCTCCC
DNA 2: TGGTGGCTACGACGGGATT
B9: CUACAAU (DNA:RNA)
RNA: B1 RNA with U25C, G28C, G30A, A31U
DNA 1: CAATCTGAATTCCGGTCTCCC
DNA 2: TGGTGGCTACGACGGGATT
B10: CUUUUGU (DNA:RNA)
RNA: B3 RNA with G25C, G26U, G27U, G29U, A30G
DNA 1: CAATCTGAATTCCGGTCTCCC
DNA 2: TGGTGGCTACGACGGGATT
B11: UUUGUGA (DNA:RNA)
RNA: B1 RNA with A27U, A29U
DNA 1: CAATCTGAATTCCGGTCTCCC
DNA 2: TGGTGGCTACGACGGGATT
B12: UGCUUUG (DNA:RNA)
RNA: B3 RNA with G25U, G27C, G29U, A30U, U31G
DNA 1: CAATCTGAATTCCGGTCTCCC
DNA 2: TGGTGGCTACGACGGGATT
B13: UCCUCCA (DNA:RNA)
RNA: B1 RNA with U26C, A27C, G28U, A29C, G30C
DNA 1: CAATCTGAATTCCGGTCTCCC
DNA 2: TGGTGGCTACGACGGGATT
B14: GGGGUCA (DNA:RNA)
RNA: B3 RNA with U28G, G29U, A30C, U31A
DNA 1: CAATCTGAATTCCGGTCTCCC
DNA 2: TGGTGGCTACGACGGGATT
B15: GUGCACU (DNA:RNA)
RNA: B3 RNA with G26U, U28C, G29A, A30C
DNA 1: CAATCTGAATTCCGGTCTCCC
DNA 2: TGGTGGCTACGACGGGATT
B16: AAUAGGA (DNA:RNA)
RNA: B1 RNA with U25A, U26A, A27U, G28A, A29G
DNA 1: CAATCTGAATTCCGGTCTCCC
DNA 2: TGGTGGCTACGACGGGATT
B17: CUUCUCG (DNA:RNA)
RNA: B1 RNA with U25C, A27U, G28C, A29U, G30C, A31G
DNA 1: CAATCTGAATTCCGGTCTCCC
DNA 2: TGGTGGCTACGACGGGATT
B18: GUGCCGU (DNA:RNA)
RNA: B3 RNA with G26U, U28C, G29C, A30G
DNA 1: CAATCTGAATTCCGGTCTCCC
DNA 2: TGGTGGCTACGACGGGATT
B19: UCUACCU (DNA:RNA)
RNA: B3 RNA with G25U, G26C, G27U, U28A, G29C, A30C
DNA 1: CAATCTGAATTCCGGTCTCCC
DNA 2: TGGTGGCTACGACGGGATT
B20: CGCGAGA (DNA:RNA)
RNA: B1 RNA with U25C, U26G, A27C
DNA 1: CAATCTGAATTCCGGTCTCCC
DNA 2: TGGTGGCTACGACGGGATT
B21: AUAACAU (DNA:RNA)
RNA: B3 RNA with G25A, G26U, G27A, U28A, G29C
DNA 1: CAATCTGAATTCCGGTCTCCC
DNA 2: TGGTGGCTACGACGGGATT
B22: CGUGGAU (DNA:RNA)
RNA: B3 RNA with G25C, G27U, U28G
DNA 1: CAATCTGAATTCCGGTCTCCC
DNA 2: TGGTGGCTACGACGGGATT
B23: CAACGGG (DNA:RNA)
RNA: B1 RNA with U25C, U26A, G28C, A29G, A31G
DNA 1: CAATCTGAATTCCGGTCTCCC
DNA 2: TGGTGGCTACGACGGGATT
B24: UACGUGU (DNA:RNA)
RNA: B1 RNA with U26A, A27C, A29U, A31U
DNA 1: CAATCTGAATTCCGGTCTCCC
DNA 2: TGGTGGCTACGACGGGATT
B25: UAGAACU (DNA:RNA)
RNA: B3 RNA with G25U, G26A, U28A, G29A, A30C
DNA 1: CAATCTGAATTCCGGTCTCCC
DNA 2: TGGTGGCTACGACGGGATT
B26: UCGUGCU (DNA:RNA)
RNA: B3 RNA with G25U, G26C, A30C
DNA 1: CAATCTGAATTCCGGTCTCCC
DNA 2: TGGTGGCTACGACGGGATT
B27: GGAAGAG (DNA:RNA)
RNA: B3 RNA with G27A, U28A, U31G
DNA 1: CAATCTGAATTCCGGTCTCCC
DNA 2: TGGTGGCTACGACGGGATT
B28: UGCCUAA (DNA:RNA)
RNA: B3 RNA with G25U, G27C, U28C, G29U, U31A
DNA 1: CAATCTGAATTCCGGTCTCCC
DNA 2: TGGTGGCTACGACGGGATT
B29: AGGCUUG (DNA:RNA)
RNA: B3 RNA with G25A, U28C, G29U, A30U, U31G
DNA 1: CAATCTGAATTCCGGTCTCCC
DNA 2: TGGTGGCTACGACGGGATT
B30: UUCGGCG (DNA:RNA)
RNA: B1 RNA with A27C, A29G, G30C, A31G
DNA 1: CAATCTGAATTCCGGTCTCCC
DNA 2: TGGTGGCTACGACGGGATT
B31: GAGUUUC (DNA:RNA)
RNA: B3 RNA with G26A, G29U, A30U, U31C
DNA 1: CAATCTGAATTCCGGTCTCCC
DNA 2: TGGTGGCTACGACGGGATT

Target: T1, RBFOX1 RRM RbFoxmut (Fox-RRM*) (Homo sapiens, UniProt Q9NWB1 109-208, R118D;E147R;N151S;E152T)
T1 sequence: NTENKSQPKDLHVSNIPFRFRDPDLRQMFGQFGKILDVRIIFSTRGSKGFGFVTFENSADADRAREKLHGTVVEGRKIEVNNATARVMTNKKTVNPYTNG
Assay: EMSA; HiTS-Eq, 1 nM pool, 10 min; buffer printed only for the single-RNA assays: 10 mM Tris pH 7.5, 150 mM NaCl, 3.4 mM EDTA, 0.001% NP-40, 30 C
Settings: tags: His6 N-terminal (pET28a); label: 5' 32P
Outline: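 Purified RbFox RRM (wild type or mutant) was equilibrated for 10 min in 50 µL with 1 nM of a 5′-radiolabelled pool of RNA with 7 randomized nucleotides, its flanks annealed to DNA oligonucleotides, across increasing protein concentrations. Free RNA was separated by 8% native PAGE, excised, reverse-transcribed, PCR-barcoded and sequenced on an Illumina HiSeq 2500. Relative association constants came from read-count changes of each variant against the control reaction, normalised to the cognate motif.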

Binder	binding signal
B1	0.0862 KA relative to UGCAUGU
B2	0.111 KA relative to UGCAUGU
B3	0.116 KA relative to UGCAUGU
B4	0.206 KA relative to UGCAUGU
B5	0.0813 KA relative to UGCAUGU
B6	0.138 KA relative to UGCAUGU
B7	0.177 KA relative to UGCAUGU
B8	0.118 KA relative to UGCAUGU
B9	0.0289 KA relative to UGCAUGU
B10	0.145 KA relative to UGCAUGU
B11	0.0842 KA relative to UGCAUGU
B12	0.179 KA relative to UGCAUGU
B13	0.116 KA relative to UGCAUGU
B14	0.172 KA relative to UGCAUGU
B15	0.0816 KA relative to UGCAUGU
B16	0.0533 KA relative to UGCAUGU

Binder	binding signal
B17	0.116 KA relative to UGCAUGU
B18	0.118 KA relative to UGCAUGU
B19	0.077 KA relative to UGCAUGU
B20	0.0977 KA relative to UGCAUGU
B21	0.0722 KA relative to UGCAUGU
B22	0.114 KA relative to UGCAUGU
B23	0.0494 KA relative to UGCAUGU
B24	0.126 KA relative to UGCAUGU
B25	0.0733 KA relative to UGCAUGU
B26	0.0892 KA relative to UGCAUGU
B27	0.0746 KA relative to UGCAUGU
B28	0.0802 KA relative to UGCAUGU
B29	0.388 KA relative to UGCAUGU
B30	0.116 KA relative to UGCAUGU
B31	0.092 KA relative to UGCAUGU
